Structures can show the parent of a compound that is named as a salt. This is one part of the list.

The test system of the assay is Schistosoma mansoni schistosomula. Description: phenotypic hit in primary schistosomula screen (any phenotype vs DMSO control) (binary (1 = hit, 0 = no phenotype)); higher = active (phenotype induced). Particulars: 1 µM; time (d): 7.
For `C[C@]12C=CC(=O)C=C1CC[C@@H]1[C@@H]2C(=O)C[C@@]2(C)[C@H]1CC[C@]2(O)C(=O)CO` [prednisone], the phenotypic hit was inactive: 0.
The figure for `CCOC(=O)CCC(=O)O[C@H]1[C@H](O[C@@H]2[C@@H](C)[C@H](O[C@H]3C[C@@](C)(OC)[C@@H](O)[C@H](C)O3)[C@@H](C)C(=O)O[C@H](CC)[C@@](C)(O)[C@H](O)[C@@H](C)C(=O)[C@H](C)C[C@@]2(C)O)O[C@H](C)C[C@@H]1N(C)C` [erythromycin ethylsuccinate] is inactive: 0; for `CS(=O)(=O)Nc1ccc([N+](=O)[O-])cc1Oc1ccccc1` [nimesulide] it is inactive: 0; for `CCn1cc(C(=O)O)c(=O)c2cc(F)c(N3CCNC(C)C3)c(F)c21` (stereo not given) [lomefloxacin hydrochloride] it is inactive: 0.
With `Cc1occc(=O)c1/C=C/O` [2-methyl-3-hydroxyethylenepyran-4-one] the figure was inactive: 0.
The figure for `C[C@]12CC[C@@H](O)C[C@H]1CC[C@@H]1[C@@H]2C(=O)C[C@@]2(C)[C@H]1CC[C@]2(O)C(=O)CO` [tetrahydrocortisone] is inactive: 0.
Turning to `Cc1c(O)cc(O)c2c(=O)c(-c3ccc(O)cc3)coc12` [genistein, 8-methyl], the phenotypic hit is inactive: 0.
The figure for `CNCCC=C1c2ccccc2CCc2ccccc21` [Nortriptyline hydrochloride] is inactive: 0.
Turning to `COc1ccc(C2CC(=O)c3ccc(OC)cc3O2)cc1` (stereo not given) [liquiritigenin dimethyl ether], the phenotypic hit was inactive: 0.
In the case of `Cc1ccc2c(c1)CC[C@H]1CC(=O)CC[C@]21C` [13-methyl-4,4-bisnor-8,11,13-podocarpatrien-3-one], the phenotypic hit is inactive: 0.
For `CC(=O)O[C@H]1CC[C@]2(C)[C@H]3CC[C@@]4(C)[C@H](c5ccoc5)OC(=O)[C@H]5O[C@]54[C@]3(C)[C@H](OC(C)=O)C[C@H]2C1(C)C` [3beta-acetoxydeoxodihydrogedunin], the phenotypic hit is inactive: 0.
Take `Cc1ccc(/C(=C\CN2CCCC2)c2ccccn2)cc1` [Triprolidine hydrochloride]: the phenotypic hit was inactive: 0.
Take `Cc1ccc(C(C)C)cc2c(C)ccc1-2` [guaiazulene]: the phenotypic hit was inactive: 0.
In the case of `NC(=O)c1ncn([C@@H]2O[C@H](CO)[C@@H](O)[C@H]2O)c1O` [mizoribine], the phenotypic hit was inactive: 0.
Take `CCc1cc(C(N)=S)ccn1` [ethionamide]: the phenotypic hit was inactive: 0.
With `CC(=O)Nc1ccc(S(=O)(=O)Nc2ccc([N+](=O)[O-])cc2)cc1` [sulfanitran] the figure was inactive: 0; with `Cc1ccc(C(=O)Nc2ccc(S(=O)(=O)O)c3cc(S(=O)(=O)O)cc(S(=O)(=O)O)c23)cc1NC(=O)c1cccc(NC(=O)Nc2cccc(C(=O)Nc3cc(C(=O)Nc4ccc(S(=O)(=O)O)c5cc(S(=O)(=O)O)cc(S(=O)(=O)O)c45)ccc3C)c2)c1` [Suramin hexasodium], inactive: 0; with `COc1cc2cccc(OC)c(=O)c2c(OC)c1OC` [purpurogallin tetramethyl ether], inactive: 0.
With `CC(=O)OCC(=O)[C@@]1(O)CC[C@H]2[C@@H]3CCC4=CC(=O)CC[C@]4(C)[C@H]3C(=O)C[C@@]21C` [cortisone acetate] the figure was inactive: 0; with `COc1cc(C(=O)N2CCOCC2)cc(OC)c1OC` [trimetozine], inactive: 0; with `CCCCC(=O)O[C@]1(C(=O)CO)[C@@H](C)C[C@H]2[C@@H]3CCC4=CC(=O)C=C[C@]4(C)[C@@]3(F)[C@@H](O)C[C@@]21C` [betamethasone valerate], inactive: 0.
The figure for `COc1cc(O)c(C(C)=O)c(OC)c1` [xanthoxylin] is inactive: 0.
In the case of `COC(=O)CCC(=O)O[C@H]1CCC2(C)C(CCC3C2C(=O)[C@@H](O)C2(C)C3CC3OC4(CCC(C)CO4)[C@@H](C)C32)C1` (stereo not given in full), the phenotypic hit is inactive: 0.
Regarding `Nc1ccc(S(=O)(=O)Nc2ccc(Cl)nn2)cc1` [sulfachlorpyridazine], the phenotypic hit is inactive: 0.
With `CC(=O)NC(C(=O)O)C(C)(C)SN=O` (stereo not given) [snap (s-nitroso-n-acetylpenicillamine)] the figure was inactive: 0; with `CC(C)(O)CC[C@@H](O)[C@](C)(O)[C@H]1CC[C@@]2(O)C3=CC(=O)[C@@H]4C[C@@H](O)[C@@H](O)C[C@]4(C)[C@H]3CC[C@]12C` [crustecdysone], inactive: 0.
Regarding `Oc1ccc(O)cc1` [hydroquinone], the phenotypic hit was inactive: 0.
With `CC1=C2C(O)C(=O)OC3CC4C(C)(C)C(=O)C=C[C@]4(C)C(CC1)[C@]23C` (stereo not given in full) [merogedunin] the figure was inactive: 0; with `CC1CCC(NC(=O)N(CCCl)N=O)CC1` (stereo not given) [semustine], inactive: 0.
With `CN(C)CCC=C1c2ccccc2C=Cc2ccccc21` [cyclobenzaprine hydrochloride] the figure was active: 1; with `O=c1cc(-c2ccccc2O)oc2cccc(O)c12` [5,2'-dihydroxyflavone], inactive: 0; with `COc1cc(/C=C/C(=O)O)ccc1O` [ferulic acid], inactive: 0.
As to `CC(=O)O[C@H]1CC[C@]2(C)[C@H]3CC=C4[C@@H]5CC(C)(C)CC[C@]5(C)CC[C@@]4(C)[C@]3(C)CC[C@H]2C1(C)C` [beta-amyrin acetate], the phenotypic hit is inactive: 0.
With `NS(=O)(=O)c1cc2c(cc1Cl)NCNS2(=O)=O` [Hydrochlorothiazide] the figure was inactive: 0; with `Nc1ccc(C(=O)Oc2ccccc2)c(O)c1` [fenamisal], inactive: 0; with `O=c1[nH]c(=O)n([C@H]2C[C@H](O)[C@@H](CO)O2)cc1F` [floxuridine], inactive: 0.
The figure for `C[n+]1cccc(C(=O)[O-])c1` [trigonelline] is inactive: 0.
With `O=C(/C=C/c1ccccc1)c1c(O)cc(O)cc1O` [2',4',6'-trihydroxychalcone] the figure was inactive: 0.
For the compound `O=C(O)c1cc(O)c2c(c1)[C@H]([C@H]1c3cc(C(=O)O)cc(O)c3C(=O)c3c(O[C@@H]4O[C@H](CO)[C@@H](O)[C@H](O)[C@H]4O)cccc31)c1cccc(O[C@@H]3O[C@H](CO)[C@@H](O)[C@H](O)[C@H]3O)c1C2=O` [sennoside a], the phenotypic hit was inactive: 0.
With `C[C@@H]1C(=O)O[C@H]2C[C@@]34[C@H]5C[C@@H](C(C)(C)C)[C@]36[C@@H](OC(=O)[C@@H]6O)O[C@@]4(C(=O)O5)[C@]21O` [ginkgolide a] the figure was inactive: 0.

The values above are taken from the supplement of paper PMC2702839.
